Experimental findings from the RNAGym collection of RNA variant scans (doi:10.1073/pnas.2313332121) are described below.

To fix the notation:
B1: TPR 5TU (parent)
chain: GGAUCUUCUCGAUCUAACAAAAAAGACAAAUCUGCCACAAAGCUUGAGAGCAUCUUCGGAUGCAGAGGCGGCAGCCUUCGGUGGCGCGAUAGCGCCAACGUUCUCAACUAUGACACGCAAAACGCGUGCUCCGUUGAAUGGAGUUUAUCAUG

Variants at the floor of the assay are shown more often than the library holds them. Where only a bound is given, the exact number is not on record here.

The variants in this series derive from B1. Nature of the series: polymerase ribozyme fitness, log enrichment relative to wild type (log ratio); higher = more active; in vitro selection for triplet polymerase activity. The gist of the method: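 Fitness is a logarithmic measure of how a genotype enriched relative to the wild type, with replicate averages weighted by inverse variance. The logarithm uses base 2, and enrichment came from Illumina sequencing of input and output libraries. Those libraries were PCR-built, transcribed mutants of each subunit of a heterodimeric triplet polymerase ribozyme, passed through one triplicate in vitro selection round that included frozen incubation at −7 °C, gel excision of extended constructs and streptavidin-bead capture. Genotypes were kept only if they had ≥10 input reads and ≥1 read per output.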
Turning to C8G A26C A52U G65A A73G G80C G84A G124C, the “polymerase ribozyme fitness (log ratio)” value was at most -4.2.
The result for C8A A17G A21C U53A A113C reads at most -4.2; that for U7G A89U U135C G141C, at most -4.2.
In the case of C8A G86A, the “polymerase ribozyme fitness (log ratio)” value was -3.76.
For C8A U9C G42U C93A C99U A120U, the “polymerase ribozyme fitness (log ratio)” value is at most -4.2.
On to C8G A20G A28U G50A C72A A73C, for which the “polymerase ribozyme fitness (log ratio)” value was at most -4.2.
The result for C8G G48A A52C U53A C54U G67U G81U A91C C118U reads at most -4.2; that for C8A A30U C43G U144C, at most -4.2.
For C8G U13A A22G A26U A37U G68C G136C U148C A150G, the “polymerase ribozyme fitness (log ratio)” value was at most -4.2.
C8A U9G C10U C75U C87U G92U U135G U139G G141U: the “polymerase ribozyme fitness (log ratio)” value was at most -4.2.
On to C8A A24G A41C C93U A97U A120G, for which the “polymerase ribozyme fitness (log ratio)” value is at most -4.2.
To C8A A22G G50C belongs at most -4.2; to C8A G92C G143C U148G, at most -4.2; to U7G C35A U53A G58C A73C G94U C125G G126A, at most -4.2.
As for C8A A23U A28U U56A U77C G86U C103G A115U C125A G143U, the “polymerase ribozyme fitness (log ratio)” value was at most -4.2.
Regarding C8A C35A A73U C93U, the “polymerase ribozyme fitness (log ratio)” value was at most -4.2.
In the case of U7G U53A C75U C131U, the “polymerase ribozyme fitness (log ratio)” value was at most -4.2.
U7G A24C C43A A47G C75U C85A G86A C103G: the “polymerase ribozyme fitness (log ratio)” value is at most -4.2.
With C8G C32A G42A C54U U56A C96G C118G, the “polymerase ribozyme fitness (log ratio)” value is at most -4.2.
As to C8A A22G C87A A119U U134A G143C, the “polymerase ribozyme fitness (log ratio)” value was at most -4.2.
With C8G G83A U101C, the “polymerase ribozyme fitness (log ratio)” value is at most -4.2.
In the case of C8G C85G, the “polymerase ribozyme fitness (log ratio)” value was at most -4.2.
For C8A A17G G50C C85A, the “polymerase ribozyme fitness (log ratio)” value was at most -4.2.
For C8A A17C C43A U61A C87A C103G A115U G143C U151C, the “polymerase ribozyme fitness (log ratio)” value is at most -4.2.
For U7G A24U A49G G67C G68C C87U A89C G126A G143A C149G, the “polymerase ribozyme fitness (log ratio)” value is at most -4.2.
Turning to C8A A41U, the “polymerase ribozyme fitness (log ratio)” value was at most -4.2.
With C8A C76A C85U G143C A150U, the “polymerase ribozyme fitness (log ratio)” value is at most -4.2.
For C8A C87A G100U G126U, the “polymerase ribozyme fitness (log ratio)” value was at most -4.2.
As for C8A C76G G92U, the “polymerase ribozyme fitness (log ratio)” value was at most -4.2.
C8G C35U G46C C72U G74U C96U A107G: the “polymerase ribozyme fitness (log ratio)” value is at most -4.2.
As for C8A C38U G80C C85U G100U, the “polymerase ribozyme fitness (log ratio)” value is at most -4.2.
Take C8A C27U C76U: the “polymerase ribozyme fitness (log ratio)” value is at most -4.2.
On to U7G C8A A20U A23U C35G U55G C69A G71A G86A A113G, for which the “polymerase ribozyme fitness (log ratio)” value was at most -4.2.
As to C8A A12C A21U U78C C85G A89G C105G G141A, the “polymerase ribozyme fitness (log ratio)” value is at most -4.2.
Consider C8A A91U G92A G112U, for which the “polymerase ribozyme fitness (log ratio)” value was at most -4.2.
Turning to C8G C36G G62C G84U, the “polymerase ribozyme fitness (log ratio)” value was at most -4.2.
Turning to C8G G11A A26G C57U G62C C72G C131G U145C, the “polymerase ribozyme fitness (log ratio)” value was at most -4.2.
The result for U7G C85G reads at most -4.2; that for U7G C8A G46C C63U G83C C85G C114G C149A, at most -4.2.
Take C8G A24C C27G A28U A37C A40C G50C U90C C95G C132U: the “polymerase ribozyme fitness (log ratio)” value was at most -4.2.
To C8G U9G A22U A39U U56G C103A A119C A121U A137C belongs at most -4.2; to C8A A91G A142U G143U U145G, at most -4.2.
Take C8A C85G C103U A110G U134G C149G: the “polymerase ribozyme fitness (log ratio)” value is at most -4.2.
The result for U7G A26U U56A G59U C75G G84U G94U U130G U146C reads at most -4.2.
As to C8G A16U G50U U53A C54U C87A A115U C116G, the “polymerase ribozyme fitness (log ratio)” value was at most -4.2.
To C8A C27G U53A U55A G58A G65A A66C A73C C96G belongs at most -4.2; to C8G A17U A40U C93G C96A A97G G126A, at most -4.2; to C8A A41G U44G C79A A91C, at most -4.2.
Take C8A A19C A21U A119G: the “polymerase ribozyme fitness (log ratio)” value was at most -4.2.
For C8G C32U G50C U55A C79G C96A, the “polymerase ribozyme fitness (log ratio)” value is at most -4.2.
C8A A17U A41U G58C C125G U148A: the “polymerase ribozyme fitness (log ratio)” value was at most -4.2.
The result for C8G A21C G74U G84A U135A reads at most -4.2; that for C8A A17C A24G A30G C35G G81C A89C G141C, -3.67.
In the case of U7G A28U A41U C57A C87G, the “polymerase ribozyme fitness (log ratio)” value is at most -4.2.
Take U7G C10U U15C A16G C18A A29G G59C C85G C116U: the “polymerase ribozyme fitness (log ratio)” value was at most -4.2.
Consider C8A C18U A19U A21U U61A G62U A91G G94U, for which the “polymerase ribozyme fitness (log ratio)” value was at most -4.2.
Consider C8G G50C U61A C72A G84A C93U A98U U104C A147U, for which the “polymerase ribozyme fitness (log ratio)” value was at most -4.2.
The result for U7G U15A G67C G83A reads at most -4.2; that for C8G U13G A39C G46A G62A G74U U77G C123A, at most -4.2; that for C8G A52G C72U U77A C108G, at most -4.2.
The result for U7G C32U G80C U82G reads at most -4.2; that for C8G A39U C57G G58A G94A C108U, at most -4.2; that for C8A A12C G42A G50C G83A U90C C96U G141U A147C, at most -4.2.
As to C8G A20U A24C A40G C76A C132G, the “polymerase ribozyme fitness (log ratio)” value was at most -4.2.
Take C8A C14A A23G A89G C95A U148A: the “polymerase ribozyme fitness (log ratio)” value is at most -4.2.
In the case of C8G A24G A28C C43A C105G A122C A147U, the “polymerase ribozyme fitness (log ratio)” value was at most -4.2.
In the case of C8G C35U C57G U77A U82G G83C C93A A137G, the “polymerase ribozyme fitness (log ratio)” value was at most -4.2.
Consider C8A C14A A21C A40C G42U U55A C85A C125A, for which the “polymerase ribozyme fitness (log ratio)” value is at most -4.2.
As to C8A G42C U44A U61A G81C G88U U104A G117A G126C G128C, the “polymerase ribozyme fitness (log ratio)” value was at most -4.2.
As for U7G C57U G59C G88A C93A A115C, the “polymerase ribozyme fitness (log ratio)” value is at most -4.2.
Regarding C8G U9G U33C A47U C96U, the “polymerase ribozyme fitness (log ratio)” value is at most -4.2.
The result for C8G A21C reads -3.31.
For U7G C54U U55A G65A A107U, the “polymerase ribozyme fitness (log ratio)” value was at most -4.2.
Consider C8A A21U G94C A97G A107U G140U U144G, for which the “polymerase ribozyme fitness (log ratio)” value was at most -4.2.
The result for U7G C14U A23G G58A C75A C87G C99G reads at most -4.2.
As to C8A A12U U15G G62U G124A, the “polymerase ribozyme fitness (log ratio)” value is at most -4.2.
On to C8A A17C C35U C63A, for which the “polymerase ribozyme fitness (log ratio)” value is at most -4.2.
With C8A C14G C57A A60G C76G G141C, the “polymerase ribozyme fitness (log ratio)” value is at most -4.2.
For the variant C8G U9A C10A C35U G58A C85A U111G, the “polymerase ribozyme fitness (log ratio)” value is at most -4.2.
In the case of C8G A39U C96U G140A, the “polymerase ribozyme fitness (log ratio)” value was at most -4.2.
For the variant C8A C51A A73U C93U A107U G143A, the “polymerase ribozyme fitness (log ratio)” value is at most -4.2.
To C8G A21G A28U U77C C79U A122C G152U belongs at most -4.2; to C8G G11C A30C C96U A138C, at most -4.2.
